The results in this text go back to PubChem BioAssay AID1645887 (National Center for Advancing Translational Sciences (NCATS), 2021).

Where “and” joins values, the source holds several entries; their conditions need not be identical. Equal entries are not always repeated. Screen size: about 16,000 compounds; about 40 (0.2%) were called active. Inconclusive results (about 1%) are left out. Calls come from the whole dose curve; as a rule, active = well fitted activation curve with a large enough effect; inconclusive = small, poorly fitted or top-dose-only effect, or another doubt; inactive = no such curve, though single readings can be large or run the other way. The list shows a part of the results.
% is set by controls: 0 for no effect and ±100 for the full control effect.

This experiment has as its target Rap guanine nucleotide exchange factor 4 (Homo sapiens) (UniProt Q8WZA2). Briefly: Validation qHTS for agonist of cAMP-regulated guanine nucleotide exchange factor 4 (EPAC2).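 Note: exchange makes BODIPY-GDP fluorescence drop when released from Rap1B; series mostly up to about 150 µM.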 As to conditions: EPAC2 Rap1B BODIPY-GDP exchange, fluorescence; activation: hits give high values. The method in brief: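 Signal normalized against 6.5 mM cAMP as agonist control. Mix of EPAC2 (100 nM), RAP1B-BODIPY-GDP (250 nM) and GDP (50 uM) was read kinetically at 480/540 nm, every 5 min over 30 min, after 5 min room-temperature incubation with compound.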
Sequence of UniProt Q8WZA2 (Q8WZA2 whole entry, looked up): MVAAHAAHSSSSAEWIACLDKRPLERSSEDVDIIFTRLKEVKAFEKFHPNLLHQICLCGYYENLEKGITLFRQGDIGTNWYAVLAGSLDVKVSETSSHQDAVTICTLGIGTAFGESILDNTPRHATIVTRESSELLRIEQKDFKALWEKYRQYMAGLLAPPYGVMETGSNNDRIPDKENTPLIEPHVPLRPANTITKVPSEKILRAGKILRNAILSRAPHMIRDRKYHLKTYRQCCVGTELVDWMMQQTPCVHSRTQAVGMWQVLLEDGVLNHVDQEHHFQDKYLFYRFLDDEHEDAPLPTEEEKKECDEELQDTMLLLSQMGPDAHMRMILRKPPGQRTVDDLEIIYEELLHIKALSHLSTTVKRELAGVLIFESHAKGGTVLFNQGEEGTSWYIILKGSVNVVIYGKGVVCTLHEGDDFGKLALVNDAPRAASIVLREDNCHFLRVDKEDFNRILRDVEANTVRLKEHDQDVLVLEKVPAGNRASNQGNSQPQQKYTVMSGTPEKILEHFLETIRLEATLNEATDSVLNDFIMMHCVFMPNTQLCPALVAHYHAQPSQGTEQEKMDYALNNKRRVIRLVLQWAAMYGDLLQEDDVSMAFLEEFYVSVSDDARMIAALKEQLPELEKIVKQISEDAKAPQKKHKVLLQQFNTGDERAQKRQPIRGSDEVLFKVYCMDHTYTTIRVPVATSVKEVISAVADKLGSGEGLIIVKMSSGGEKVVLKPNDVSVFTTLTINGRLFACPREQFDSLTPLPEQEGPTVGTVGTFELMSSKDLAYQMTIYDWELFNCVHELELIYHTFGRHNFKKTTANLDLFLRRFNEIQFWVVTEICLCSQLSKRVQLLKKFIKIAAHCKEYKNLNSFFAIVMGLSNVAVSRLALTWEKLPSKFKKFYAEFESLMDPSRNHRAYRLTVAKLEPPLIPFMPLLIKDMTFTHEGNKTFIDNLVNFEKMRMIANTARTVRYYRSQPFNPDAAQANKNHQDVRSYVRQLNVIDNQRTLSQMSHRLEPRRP
As for `NC(N)=NOCCC(N)C(=O)O` (stereo not given), the activation is inactive: 4.02% and inactive: -3.43%.

Take `CN1C2CCC1CC(C(=O)OC(CO)c1ccccc1)C2` (stereo not given): the activation was inactive: -8.73%.

In the case of `CC1N=C(N)OC1c1ccccc1` (stereo not given), the activation was inactive: -0.752%.

Consider `Cc1nccc2c1[nH]c1ccccc12`, for which the activation is inactive: -5.94% [middle of 4 runs].

As for `CCOC(=O)c1ncn2c1[C@H]1CCCN1C(=O)c1cc(OC)ccc1-2`, the activation was inactive: -17.9%.

For `CN1CC[C@@]2(C)c3cc(O)ccc3N(C)C12` (stereo not given in full), the activation was inactive: -29.8%.

For the molecule `C[N+]1(C)CCCCC1COC(=O)C(O)(c1ccccc1)c1ccccc1` (stereo not given), the activation was inactive: 8.98%.

As for `CC(=O)CC1CCCCN1` (stereo not given), the activation was inactive: -7.98%.

In the case of `C=C1C2CCC3[C@@](CC[C@@H]4C(C(=O)O)CC(OC5OC(CO)C(OS(=O)(=O)O)C(OS(=O)(=O)O)C5OC(=O)CC(C)C)C[C@]34C)(C2)C1O` (stereo not given in full), the activation is inactive: -1.17%.

`O=C1CCCCC1CN1CCCCC1` (stereo not given): the activation was inactive: -9.13%.

As to `CCN1C[C@]2(COC)[C@H](O)C[C@H](OC)[C@@]34[C@@H]5C[C@@]6(O)[C@H](OC(=O)c7ccccc7)[C@@H]5[C@@](OC(C)=O)([C@@H]([C@H](OC)[C@H]23)[C@@H]14)[C@@H](O)[C@@H]6OC`, the activation was inactive: -9.4%.

As to `CNc1ccc(C(=O)CC(O)CCC(C)C2OC(=O)CC(O)CC(=O)CC(O)CC(O)CC(O)CC(O)CC3(O)CC(O)C(C(=O)OC)C(CC(O[C@@H]4O[C@H](C)[C@@H](O)[C@H](N)[C@@H]4O)/C=C/C=C/C=C/C=C/C=C/C=C/C=C/C2C)O3)cc1` (stereo not given in full), the activation is inactive: 2.94%.

Turning to `COc1cc2c3cc1Oc1c(OC)c(OC)cc4c1C(Cc1cccc(c1)Oc1ccc(c(O)c1)CC3N(C)CC2)N(C)CC4` (stereo not given), the activation was inactive: -2.28%.

On to `CC(C)C[C@H](NC(=O)[C@H](Cc1ccccc1)NC(=O)CNC(=O)[C@H](C)NC(=O)[C@@H](N)Cc1ccc(O)cc1)C(=O)O`, for which the activation was inactive: 7.45%.

For `O=[N+]([O-])c1cc([As](=O)(O)O)ccc1O`, the activation was inactive: 8.67% and inactive: -2.07%.

For the molecule `CCN1C[C@@]2(OC(=O)c3ccccc3NC(C)=O)CCC(OC)[C@@]34C5CC6C(OC)C[C@@](O)(C(CC23)[C@@H]14)C5(O)C6OC` (stereo not given in full), the activation is inactive: -30.3%.

With `O=[N+]([O-])c1cc(I)c(O)c(I)c1`, the activation is inactive: -12.7%.

With `c1ccc2c(c1)[I+]c1ccccc1-2`, the activation is inactive: 9.27% and inactive: 3.47% and inactive: -13.1%.

On to `COc1cc2c(cc1OC)[C@]13CCN4CC5=CCOC6CC(=O)N2[C@@H]1[C@@H]6C5C[C@@H]43` (stereo not given in full), for which the activation is inactive: -7.36%.

On to `CCc1cccc(CC)c1N(COC)C(=O)CCl`, for which the activation was inactive: -3.08%.

Take `COC(C/C=C/C=C/CC/C=C\CC(C)/C=C\C(=C/C(=O)O)CC(=O)O)/C(C)=C\C=C(/C)C(=O)O` (stereo not given): the activation is inactive: 8.21%.

With `O=C(O)c1ccc2[nH]cc(CCCCN3CC=C(c4ccccc4)CC3)c2c1`, the activation was inactive: -15.8%.

Regarding `CNc1ccc2oc(C[C@H]3O[C@@]4(CC[C@H]3C)O[C@H]([C@H](C)C(=O)c3ccc[nH]3)[C@H](C)C[C@H]4C)nc2c1C(=O)O`, the activation was inactive: -66.1%.

In the case of `CC(C)CCCC1(C)C=Cc2c(O)c3c(c(CCC(C)C)c2O1)OC12C(CC4CC1C(C)(C)OC2(CCC(C)C(=O)O)C4O)C3=O` (stereo not given), the activation is inactive: -55.4%.

With `COc1ccc2c(c[n+](C)c3c4cc5c(cc4ccc23)OCO5)c1OC`, the activation was inactive: 16.1% and inactive: 10.6%.

Regarding `CCC1(c2ccc(N)cc2)CCC(=O)NC1=O` (stereo not given), the activation is inactive: 6.48% and inactive: -12.1% and inactive: -59.4%.

For the molecule `C[C@H](Cc1ccc2c(c1)OC(C(=O)O)(C(=O)O)O2)NC[C@H](O)c1cccc(Cl)c1`, the activation was inactive: -18.6%.

For `CC[C@@H](CO)NC(=O)[C@H]1C=C2c3cccc4c3c(cn4C)C[C@H]2N(C)C1`, the activation is inactive: 16.9%.

For `CCCCCCCCCC(=O)O[C@H]1CC[C@H]2[C@@H]3CCC4=CC(=O)CC[C@]4(C)[C@H]3CC[C@]12C`, the activation is inactive: -9.81%.

For `C[N+]1(C)CCN(c2ccccc2)CC1`, the activation was inactive: -11.2% and inactive: -34.1%.

Turning to `ClC1=C(Cl)[C@]2(Cl)[C@@H]3[C@@H]4C[C@@H]([C@H]5O[C@@H]45)[C@@H]3[C@@]1(Cl)C2(Cl)Cl`, the activation was inactive: -6.27%.

Consider `[H+].[H+].[Hg+2].[O-]B([O-])[O-].[c-]1ccccc1`, for which the activation is inactive: -5.46%.

For `CCOC(=O)[C@]12Cc3cc(C)ccc3[C@H]1N(Cc1ccccc1)C(=O)c1ccccc12`, the activation is inactive: -14.8%.

For `O=C1CN=C(c2ccccc2)c2cc(Cl)ccc2N1`, the activation was inactive: 1.03%.

Turning to `C[C@@H](N)[C@@H](O)c1ccccc1`, the activation is inactive: -2.87%.

With `NC(=O)COc1c(F)cc(SCCNS(=O)(=O)c2ccccc2)cc1F`, the activation is inactive: -76.9%.

Regarding `CCCN1CCC[C@H](c2cccc(O)c2)C1`, the activation is inactive: -15.4% and inactive: -15%.

On to `COc1cc2nc(N(C)C)c(CNCCc3c[nH]c4ccccc34)cc2c(OC)c1OC`, for which the activation is inactive: 0.969%.

Turning to `CN(C)C(=O)Oc1cc(OC(=O)N(C)C)cc(C(O)CNC(C)(C)C)c1` (stereo not given), the activation is inactive: 5.41% and inactive: -14.8%.

Turning to `c1ccc(N=Nc2ccccc2)cc1`, the activation was inactive: -2.68%.

Regarding `CN(C(=O)Cc1ccc(Cl)c(Cl)c1)C(CN1CCCC1)c1cccc(OCC(=O)O)c1` (stereo not given), the activation was inactive: 1.78% and inactive: -36.3%.

As for `NCCc1ccc(O)cc1`, the activation is inactive: 4.08% [middle of 4 runs].

Turning to `CN(CCc1ccc(Cl)c(Cl)c1)[C@@H]1CCCC[C@@H]1N1CCCC1`, the activation is inactive: 3.29%.

As for `COc1ccc2c(c1)C13CCCC[C@@H]1C(C2)N(C)CC3` (stereo not given in full), the activation was inactive: 0.544%.

Regarding `C[C@@H]1[C@H](O)[C@@H](C)C=CC=CCCC=CC=CC=CC=C[C@H](O[C@H]2O[C@@H](C)[C@H](O)[C@@H](N)[C@@H]2O)CC2O[C@](O)(C[C@@H](O)[C@H](O)CC[C@@H](O)C[C@@H](O)C[C@@H](O)CC(=O)O[C@H]1C)C[C@H](O)[C@H]2C(=O)O`, the activation was inactive: -11.9%.
